# According to paper PMC4336329 (PLoS ONE, 2015):
# Among all 310,000 compounds or so, about 14,000 (4.5%) showed an effect of 50% or more. The effect is printed as a negative number. This is one part of the list.
# Target: human ether-à-go-go-related gene (hERG) potassium channel (human, UniProt Q12809)
# Assay: primary screen, population patch clamp on CHO cells stably expressing hERG
# 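Note: peak tail current of the secondary pulse compared with the same well before compound.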
# Chain of human ether-à-go-go-related gene (hERG) potassium channel (Q12809 whole entry, looked up): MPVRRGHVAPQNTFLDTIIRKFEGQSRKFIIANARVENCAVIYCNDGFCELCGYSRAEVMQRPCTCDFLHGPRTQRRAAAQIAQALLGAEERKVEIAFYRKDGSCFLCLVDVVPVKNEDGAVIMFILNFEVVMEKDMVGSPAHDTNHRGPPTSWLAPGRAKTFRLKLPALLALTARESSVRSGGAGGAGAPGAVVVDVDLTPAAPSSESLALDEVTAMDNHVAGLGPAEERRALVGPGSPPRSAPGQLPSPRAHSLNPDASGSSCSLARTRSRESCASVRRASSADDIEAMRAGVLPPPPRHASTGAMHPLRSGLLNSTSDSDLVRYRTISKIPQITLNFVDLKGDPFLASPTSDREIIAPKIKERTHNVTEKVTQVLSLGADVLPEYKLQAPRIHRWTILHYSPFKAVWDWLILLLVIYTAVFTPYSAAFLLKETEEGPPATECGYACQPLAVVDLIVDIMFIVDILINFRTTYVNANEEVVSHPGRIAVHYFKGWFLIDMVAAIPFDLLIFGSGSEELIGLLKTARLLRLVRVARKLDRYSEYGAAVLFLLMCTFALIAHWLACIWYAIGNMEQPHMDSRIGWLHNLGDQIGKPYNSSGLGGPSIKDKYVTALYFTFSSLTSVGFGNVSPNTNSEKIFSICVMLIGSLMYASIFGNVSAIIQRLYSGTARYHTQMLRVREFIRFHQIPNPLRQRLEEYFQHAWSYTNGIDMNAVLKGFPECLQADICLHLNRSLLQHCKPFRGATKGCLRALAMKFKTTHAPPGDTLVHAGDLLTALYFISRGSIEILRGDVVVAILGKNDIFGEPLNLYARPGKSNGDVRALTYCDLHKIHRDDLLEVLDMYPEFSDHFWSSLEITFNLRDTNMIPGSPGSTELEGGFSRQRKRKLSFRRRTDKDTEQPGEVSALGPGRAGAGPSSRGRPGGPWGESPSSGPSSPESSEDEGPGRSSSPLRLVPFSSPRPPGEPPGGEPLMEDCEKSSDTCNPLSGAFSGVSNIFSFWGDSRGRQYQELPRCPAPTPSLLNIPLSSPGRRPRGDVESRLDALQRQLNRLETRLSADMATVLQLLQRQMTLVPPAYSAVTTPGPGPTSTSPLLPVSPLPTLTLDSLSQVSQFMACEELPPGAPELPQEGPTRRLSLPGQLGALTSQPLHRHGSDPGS
row,SMILES,"hERG current change (%, negative = inhibition) at 10uM [%]"
1,CC(NC(=O)c1ccc(N2CCNCC2)c([N+](=O)[O-])c1)C12CC3CC(CC(C3)C1)C2 (stereo not drawn),-27.6
2,CCCN(CCC)CCCNC(=O)c1cc2c(=O)n(CC)c3ccccc3c2s1,-29.8
3,O=C(CCNC(=O)C1CCN(S(=O)(=O)c2ccccc2)CC1)NCCc1cccc(F)c1,-12.2
4,Cc1ccc(NC(=O)CN(C)C(=O)CSc2nc3ccccc3o2)cc1,-20.5
5,O=C(CSCc1ccc(Cl)cc1)N/N=C/c1c(Cl)cccc1Cl,6.33
6,COc1ccc(OC)c(NC(=O)C2CCC(CNc3c(N4CCC(C)CC4)c(=O)c3=O)CC2)c1 (stereo not drawn),17
7,COc1cc(OC)cc(-c2nc3ccccc3c(=O)n2OC(=O)c2ccc(C)c(C)c2)c1,0.86
8,CCOc1ccc(CN2C(=O)CC(=O)N(S(=O)(=O)c3ccc(OCC)cc3)C2=O)cc1,11.9
9,CCCCOC(=O)Cn1c2ccc(OC)cc2c2nc3ccccc3nc21,-6.29
10,COc1ccc(Nc2ccc3c(c2)=NC2(CCCCC2)[N+]=3[O-])cc1,-25.1
11,CCOC(=O)NC(=O)/C(C#N)=C\Nc1sccc1C(=O)OC,-18.1
12,COC(=O)CN1C(=S)N(c2ccc(Cl)cc2)C(=O)C1CC(=O)Nc1ccc(F)cc1 (stereo not drawn),-14.6
13,Cc1ccc(N=Nc2ccc(O)c(/C=N\NC(=O)c3ccc(N)cc3)c2)cc1C,6.55
14,CC(C)(C)OC(=O)N1CCN(c2ccc(NC(=O)Cn3nnc(-c4ccccc4)n3)cc2)CC1.Cl,3.22
15,Cc1cc(=O)n(-c2ccc(Cl)cc2)c(=O)[nH]1,19
16,CCc1ccc(CN2CCSCC2)cc1,7.39
17,Cc1cc(N)c2cc(NC(=O)/C=C/c3ccccc3Cl)ccc2n1,-46.5
18,CCCCc1c(O)nc(SCC(=O)c2ccccc2)[nH]c1=O,-2.4
19,CCCn1c(SCC(=O)N(CC)CC)nnc1-c1ccncc1,13.3
20,Cc1sc(N)nc1-c1ccc2c(c1)OCCO2,-9.45
21,COc1cccc(S(=O)(=O)NCc2ccc(C(=O)Nc3ccc(C)cc3)cc2)c1,4.4

row,SMILES,"hERG current change (%, negative = inhibition) at 10uM [%]"
1,Cc1ccc(S(=O)(=O)NCC(=O)OCc2nnc(-c3ccccc3)o2)cc1C,-23.3
2,CC(=O)c1cccc(NC(=O)C(=O)Nc2cccc3ccccc23)c1,13.3
3,O=C1CCN(Cc2ccccc2)N1,21.9
4,Cc1cc(NC(=O)CN2CCN(c3cccc(Cl)c3)CC2)no1,8.46
5,CCc1ccc2[nH]cc(S(=O)(=O)c3ccc(C)c(C)c3)c(=O)c2c1,16.8
6,O=C(CSc1ccc2nnc(-c3cccc(F)c3)n2n1)N1CCCc2ccccc21,-36.9
7,C=CCNC(=S)NNC(=O)COc1ccc(Cl)cc1Cl,2.93
8,Cc1ccc(CCNS(=O)(=O)c2ccc3c(c2)C(C)(C)C(=O)N3C)cc1,-1.74
9,Cc1cc(C)nc(N2CCCC(C(=O)NCCc3cccc(F)c3)C2)n1 (stereo not drawn),-3.84
10,CCCCCCC(O)(c1ccc(OC)cc1)C(CN1CCOCC1)c1ccccc1.Cl (stereo not drawn),5.12
11,Cl.NCCOc1ccc(C23CC4CC(CC(C4)C2)C3)cc1,25.7
12,COc1cc(C)c(Cl)cc1S(=O)(=O)NC1CC(C)(C)NC(C)(C)C1,18.6
13,O=C(c1ccccc1Cc1ccccc1)N1CCN(S(=O)(=O)c2ccccc2)CC1,-6.88
14,CC(c1ccccc1C(O)(c1ccccc1)c1ccccc1)N(C)C (stereo not drawn),-41.1
15,CN(C)CCc1c[nH]c2ccc(C[C@H]3COC(=O)N3)cc12,-5.24
16,COc1ccccc1CCNC(=O)c1cc(-c2ccccn2)nc2ccc(Br)cc12,6.17
17,CCOC(=O)NCCc1c(C)nc2c(c(C)nn2C(C)(C)C)c1C,-6.99
18,Cn1c2c(c3cc([N+](=O)[O-])ccc31)CCCC2,4
19,Cc1ccc(C)c(NC(=O)CCN2C(=O)c3ccccc3C2=O)c1,13.6
20,O=C(Nc1c2c(nn1-c1ccccc1)CSC2)c1ccc(N2C(=O)CCC2=O)cc1,12.5
21,CC(C)CN1CCC(=O)N([C@H](CN=[N+]=[N-])Cc2ccccc2)CC1,-22.9

row,SMILES,"hERG current change (%, negative = inhibition) at 10uM [%]"
1,COc1ccc(N2C(=O)CCC(C(=O)N3CCCCC3)C2c2ccc(F)cc2)cc1 (stereo not drawn),17.7
2,C[C@]12CCC3C(CC[C@H]4C[C@H](N)CC[C@]34C)C1CC[C@H]2O.Cl (stereo partly drawn),13.7
3,CCOC(=O)CN1C(=O)/C(=C2\SC(=S)N(NC(=O)c3cccnc3)C2=O)c2ccccc21,11.5
4,O=C(NCc1ccco1)C(c1cccs1)N(Cc1ccccc1)C(=O)Cn1nnc2ccccc21 (stereo not drawn),-10.6
5,COc1ccc(Nc2cc(Nc3cccc(OC)c3)ncn2)cc1,19.9
6,CCOc1ccc(NS(=O)(=O)c2ccc(C(=O)N(C)Cc3cccc(OC)c3OC)cc2)cc1,6.95
7,COc1cccc(/C=N/NC(=O)CSCC(=O)Nc2ccccc2)c1O,0.503
8,Oc1ccc(/C=N/N2CCCCC2)c(O)c1O,13.3
9,CCC(C)(C)n1nnnc1CN(Cc1ccco1)Cc1cc2cc3c(cc2[nH]c1=O)OCO3,-2.83
10,O=C(O)c1cn(-c2ccccc2)nc1-c1ccc(Cl)cc1,-0.485
11,CCC(=O)Nc1cccc(C(=O)/C=C/c2cccs2)c1,-3.34
12,CCc1nc(SCC(=O)NCC2CCCO2)c2oc3ccccc3c2n1 (stereo not drawn),-20
13,COC(=O)C(Cc1ccc(OC(=O)c2ccc(C(F)(F)F)cc2)cc1)N1Cc2ccccc2C1=O (stereo not drawn),15.9
14,CCc1ccc(NC(=O)C(=O)NCc2ccccn2)cc1,5.21
15,O=C(O)c1ccc2c(c1)N(Cc1ccccc1)C(=O)c1ccccc1S2,-1.04
16,COC(=O)Cc1[nH]nc2c1C1(C(=O)N(Cc3ccc(Cl)cc3)c3ccccc31)C(C#N)=C(N)O2 (stereo not drawn),-1.3
17,COc1ccccc1-n1c(SCC(=O)N2CCOCC2)nc(O)c(Cc2ccccc2)c1=O,17.4
18,O=C(C1=C(O)C(=O)N(Cc2cccnc2)C1c1ccccn1)c1cccs1 (stereo not drawn),17.9
19,COc1ccccc1NC(=S)NCCc1ccc(OC)c(OC)c1,11.5
20,O=C(c1ccc(F)cc1)N1CCN(C(=O)c2ccc([N+](=O)[O-])cc2)CC1,-63.2
21,CC(NCc1ccc(OCc2ccc(Cl)cc2)cc1)C(O)c1ccccc1.Cl (stereo not drawn),-62.5

row,SMILES,"hERG current change (%, negative = inhibition) at 10uM [%]"
1,O=S(=O)(c1ccc(-c2csc(-c3cccnc3)n2)cc1)N1CCCC1,-4.98
2,CCN(C(=O)CN1C(=O)S/C(=C\C=C\c2ccccc2)C1=O)C1CCS(=O)(=O)C1 (stereo not drawn),15.3
3,CN(C)S(=O)(=O)c1cc(NC(=O)COC(=O)c2ccc3c(c2)OCO3)ccc1Cl,25
4,COc1ccc(-c2[nH]ncc2Oc2ccccc2OC)c(O)c1,-11.3
5,O=C(/C=C(/c1ccc(Cl)cc1)n1cncn1)c1ccccc1,-27.5
6,O=C(NCC1CCCO1)c1ccccc1NS(=O)(=O)c1ccc(F)cc1 (stereo not drawn),1.91
7,Cl.O=C(CS(=O)(=O)c1ccccc1)N(CCCN1CCOCC1)c1nc2c(F)cccc2s1,-44.9
8,O=[N+]([O-])c1cc([N+](=O)[O-])c(Oc2cc(F)cc(F)c2F)cc1NN1CCCCC1,15.1
9,COc1ccc(NC(=O)Nc2cccc(NC(C)=O)c2)c(OC)c1,23.5
10,CCOC(=O)[C@H]1[C@H]2COc3cc(OC)ccc3[C@@H]2N2C(=O)N(c3ccc(Br)cc3)C(=O)[C@@]12C,3.98
11,O=C(COc1ccc(S(=O)(=O)N2CCOCC2)cc1Cl)NCc1ccco1,-9.84
12,O=C(COC(=O)c1ccccc1[N+](=O)[O-])Nc1cc(S(=O)(=O)N2CCOCC2)ccc1N1CCCC1,-25.6
13,CC(/C=C/C1[C@H](C)C[C@H](O[C@@H]2O[C@H](CO)[C@@H](O)[C@H](O)[C@H]2O)CC1(C)C)O[C@H]1O[C@H](CO)[C@@H](O)[C@H](O)[C@H]1O (stereo partly drawn),6.99
14,O=C(CSc1nc2ccccc2o1)N1CCN(c2ccc(Cl)cc2)CC1,11.2
15,CCNc1[nH]c(=O)n(C)c(=O)c1N=O,12.5
16,CN(C)C(=O)CSc1nnc(Cc2ccccc2)n1CC1CCCO1 (stereo not drawn),20.3
17,COc1c2occc2c(OC)c2c(=O)cc(C(F)(F)C(F)(F)F)oc12,1.22
18,CC(=O)Nc1cccc(C(=O)OCC(=O)Nc2ccc(Cl)cn2)c1,17.4
19,CCOC(=O)C1(Cc2ccccc2Cl)CCN(S(C)(=O)=O)CC1,-0.757
20,O=C(Cc1ccc(Br)cc1)N1CCOCC1,13.6
21,CCc1nccn1S(=O)(=O)c1cc(OC)ccc1OC,2.62
